Test results: a compilation of properties of binary mixtures (doi:10.1016/j.molliq.2017.08.014)
The densities may have been worked out from excess volumes.

Assay: xn = mol fraction of the nth substance listed
Conditions: 101 kPa

CCOC(C)=O + CCCCn1cc[n+](C)c1.Cl[Fe-](Cl)(Cl)Cl
x2 = 0
Conditions | mass density [kg/m3]
293.15 K | 900.6
298.15 K | 894.5
303.15 K | 888.4
308.15 K | 882.2
313.15 K | 876
318.15 K | 869.7
323.15 K | 863.4

CCCCn1cc[n+](C)c1.[Cl][Fe-]([Cl])([Cl])[Cl] + CCOC(C)=O
mass density [kg/m3]
Conditions | x1 = 0.1002 | x1 = 0.1999 | x1 = 0.3007 | x1 = 0.3999 | x1 = 0.5 | x1 = 0.6001 | x1 = 0.7 | x1 = 0.7973 | x1 = 0.9 | x1 = 1
293.15 K | 1015.7 | 1095.8 | 1160.7 | 1210.2 | 1249.1 | – | 1309 | 1331.3 | 1350.6 | 1369.1
298.15 K | 1010.2 | 1090.7 | 1155.9 | 1205.6 | 1244.7 | 1277.2 | 1304.8 | – | – | 1365
303.15 K | 1004.7 | 1085.7 | 1151.1 | 1201 | 1240.2 | – | 1300.5 | – | 1342.3 | 1360.9
308.15 K | 999.2 | – | 1146.3 | – | 1235.8 | – | 1296.3 | – | 1338.2 | –
313.15 K | 993.8 | – | 1141.5 | 1191.9 | 1231.4 | 1264.2 | 1292.1 | – | 1334.1 | 1352.8
318.15 K | 988.4 | 1070.3 | – | – | 1227 | 1260 | 1287.9 | 1310.5 | – | 1348.8
323.15 K | 983.6 | 1065 | 1132 | 1182.8 | 1222.6 | 1255.7 | 1283.7 | 1306.4 | 1326 | 1344.8
